In the supplement of paper PMC4604168 (melanoma cell lines) one finds cell count data, which are given here for 31 molecules.

Some of the results follow. Most values come without repeats; read them as rough.

Among the test systems are WM1745; WM3526; WM3619; WM451Lu.
What all share (assay): cell count relative to DMSO control; melanoma cells; higher = more viable cells
Settings in all cases: library dose: low library concentration; 72 h
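Further: cell number obtained by counting DAPI-stained nuclei in high-throughput microscope images with image analysis software, screen run in 1,536-well plates.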

Regarding `COc1ccc2c(c1)CCC1C2CCC2(C)C(NCCCCCCN3C(=O)C=CC3=O)CCC12` (centres undefined) + COc1ccc(COc2ccc(Cc3cnc(N)nc3N)cc2OC)cc1 [GW2580] (first compound 0.4 µM, partner dose 1 µM), the cell count with WM1745 was 78.7%; with WM3526 it was 93.7%; in the assay on WM3619, 102%; in the assay on WM451Lu, 90.3%.

On to `O=c1cc(-c2cccc3c2Sc2ccccc2S3)oc(N2CCOCC2)c1` + CC(C)CCN1c2nc(Nc3cc(F)c(O)c(F)c3)ncc2N(C)C(=O)C1C [BID1870] (first compound 1 µM, partner dose 0.2 µM), for which the cell count was 89.1% with WM1745, 80.8% with WM3526, 84.7% with WM3619 and 88.2% in the assay on WM451Lu.

`COc1ccc(-c2ccc3c(N4CCOCC4)nc(N4C[C@@H](C)O[C@@H](C)C4)nc3n2)cc1CO` + O=C1NC(=O)/C(=C/c2ccc(-c3ccc(F)cc3O)o2)S1 [AS252424] (first compound 0.02 µM, partner dose 1 µM): the cell count is 87.5% in the assay on WM1745, 89.8% in the assay on WM3526, 94.4% with WM3619 and 116% in the assay on WM451Lu.

Regarding `Cc1cc([N+](=O)[O-])ccc1NS(=O)(=O)c1cc(Cl)ccc1Cl` + COc1cc(N2CCC(N3CCN(C)CC3)CC2)ccc1Nc1ncc(Cl)c(Nc2ccccc2S(=O)(=O)C(C)C)n1 [NVP-TAE684] (first compound 1 µM, partner dose 0.08 µM), the cell count was 94.1% in the assay with WM1745, 115% in the assay on WM3526, 112% in the assay with WM3619 and 94.1% in the assay with WM451Lu.

As to `COc1cc2ncnc(Nc3ccc(Oc4ccccc4)cc3)c2cc1OC` + CCCCCCCCCCCC1=C(O)C(=O)C=C(O)C1=O [Embelin] (first compound 2 µM, partner dose 1.2 µM), the cell count in the assay with WM1745 amounted to 85.6%; with WM3526 it was 56.1%; in the assay on WM3619, 130%; with WM451Lu it was 103%.

As to `Oc1cc(-c2nc(-c3ccccc3)[nH]c2-c2ccncc2)ccc1Cl` + O=c1cc(-c2cccc3c2Sc2ccccc2S3)oc(N2CCOCC2)c1 [KU55933] (first compound 0.2 µM, partner dose 1 µM), the cell count in the assay with WM1745 was found to be 87.3%; in the assay with WM3526 it was 70.8%; in the assay with WM3619 it was 102%; in the assay on WM451Lu, 68.1%.

For the molecule `Cn1cc(/C=C2\C(=O)Nc3cccnc32)c2ccccc21` + O=c1cc(-c2cccc3c2Sc2ccccc2S3)oc(N2CCOCC2)c1 [KU55933] (first compound 0.4 µM, partner dose 1 µM), the cell count came out at 95.7% with WM1745, 104% with WM3526, 97.6% with WM3619 and 75.4% in the assay with WM451Lu.

As to `COC(=O)c1sccc1S(=O)(=O)Nc1ccc(Nc2ccccc2)cc1OC` + CC(C)CCN1c2nc(Nc3cc(F)c(O)c(F)c3)ncc2N(C)C(=O)C1C [BID1870] (first compound 1 µM, partner dose 0.2 µM), the cell count in the assay on WM1745 came out at 115%; with WM3526, 82.8%; with WM3619, 98.9%; in the assay with WM451Lu it was 103%.

In the case of `COC(=O)c1sccc1S(=O)(=O)Nc1ccc(Nc2ccccc2)cc1OC` + COc1ccc(-c2ccc3c(N4CCOCC4)nc(N4C[C@@H](C)O[C@@H](C)C4)nc3n2)cc1CO [KU0063794] (first compound 1 µM, partner dose 0.02 µM), the cell count in the assay with WM1745 was 93.7%; in the assay on WM3526, 101%; in the assay on WM3619, 90.8%; in the assay with WM451Lu, 117%.

With `N#Cc1c(O)c2c(-c3ccc(-c4ccccc4O)cc3)csc2[nH]c1=O` + O=C1NC(=O)/C(=C/c2ccc(-c3ccc(F)cc3O)o2)S1 [AS252424] (first compound 2 µM, partner dose 1 µM), the cell count in the assay on WM1745 came out at 98%; in the assay on WM3526, 78.6%; in the assay on WM3619, 121%; in the assay on WM451Lu it was 105%.

Turning to `COC(=O)c1sccc1S(=O)(=O)Nc1ccc(Nc2ccccc2)cc1OC` + Oc1cc(-c2nc(-c3ccccc3)[nH]c2-c2ccncc2)ccc1Cl [L779450] (first compound 1 µM, partner dose 0.2 µM), the cell count with WM1745 was found to be 85.5%; in the assay with WM3526, 75.2%; in the assay on WM3619 it was 93.8%; in the assay with WM451Lu it was 90.9%.

Consider `COc1ccc2c(c1)CCC1C2CCC2(C)C(NCCCCCCN3C(=O)C=CC3=O)CCC12` (centres undefined) + c1cc(-c2cnn3cc(-c4ccc(OCCN5CCCCC5)cc4)cnc23)ccn1 [Dorsomorphin] (first compound 0.4 µM, partner dose 0.4 µM), for which the cell count with WM1745 is 85.9%; in the assay on WM3526, 93%; in the assay on WM3619, 111%; in the assay with WM451Lu, 95.1%.

`COc1cc2ncnc(Nc3ccc(Oc4ccccc4)cc3)c2cc1OC` + Oc1nc(-c2ccc(C(F)(F)F)cc2)nc2c1CSCC2 [XAV939] (first compound 2 µM, partner dose 2 µM): the cell count was 77.3% in the assay with WM1745, 94.9% in the assay with WM3526, 95.7% with WM3619 and 109% in the assay with WM451Lu.

As to `N#Cc1c(O)c2c(-c3ccc(-c4ccccc4O)cc3)csc2[nH]c1=O` + Oc1cc(-c2nc(-c3ccccc3)[nH]c2-c2ccncc2)ccc1Cl [L779450] (first compound 2 µM, partner dose 0.2 µM), the cell count in the assay with WM1745 came to 99.7%; with WM3526, 93.1%; in the assay on WM3619, 121%; in the assay on WM451Lu it was 112%.

Turning to `Oc1nc(-c2ccc(C(F)(F)F)cc2)nc2c1CSCC2` + Cn1cc(/C=C2\C(=O)Nc3cccnc32)c2ccccc21 [GW441756] (first compound 2 µM, partner dose 0.4 µM), the cell count was 83.2% with WM1745, 104% in the assay with WM3526, 83.1% with WM3619 and 114% in the assay on WM451Lu.

Turning to `COc1ccc(-c2ccc3c(N4CCOCC4)nc(N4C[C@@H](C)O[C@@H](C)C4)nc3n2)cc1CO` + COc1ccc(COc2ccc(Cc3cnc(N)nc3N)cc2OC)cc1 [GW2580] (first compound 0.02 µM, partner dose 1 µM), the cell count in the assay with WM1745 amounted to 92.5%; in the assay on WM3526 it was 106%; in the assay with WM3619, 90.7%; in the assay with WM451Lu, 89.7%.

On to `CCN(CC)CCCCNc1ncc2cc(-c3cc(OC)cc(OC)c3)c(NC(=O)NC(C)(C)C)nc2n1` + CCCCCCCCCCCC1=C(O)C(=O)C=C(O)C1=O [Embelin] (first compound 0.1 µM, partner dose 1.2 µM), for which the cell count with WM1745 worked out at 95.9%; with WM3526, 108%; with WM3619, 119%; with WM451Lu, 89.6%.

As for `COc1ccc(COc2ccc(Cc3cnc(N)nc3N)cc2OC)cc1` + O=C(O)C(=O)Nc1sc2c(c1C(=O)O)CCNC2 [TCS401] (first compound 1 µM, partner dose 1.66667 µM), the cell count in the assay on WM1745 was 77.2%; in the assay on WM3526, 90.2%; in the assay on WM3619, 67.6%; in the assay with WM451Lu it was 112%.

For the molecule `O=C1NC(=O)/C(=C/c2ccc(-c3ccc(F)cc3O)o2)S1` + O=c1cc(-c2cccc3c2Sc2ccccc2S3)oc(N2CCOCC2)c1 [KU55933] (first compound 1 µM, partner dose 1 µM), the cell count was 110% in the assay on WM1745, 72.7% with WM3526, 108% in the assay with WM3619 and 101% in the assay with WM451Lu.

In the case of `COc1ccc(-c2ccc3c(N4CCOCC4)nc(N4C[C@@H](C)O[C@@H](C)C4)nc3n2)cc1CO` + Cn1cc(/C=C2\C(=O)Nc3cccnc32)c2ccccc21 [GW441756] (first compound 0.02 µM, partner dose 0.4 µM), the cell count with WM1745 stood at 82.1%; with WM3526 it was 95.1%; with WM3619, 86.9%; in the assay with WM451Lu it was 87.1%.

As for `COc1cc2ncnc(Nc3ccc(Oc4ccccc4)cc3)c2cc1OC` + Cn1cc(/C=C2\C(=O)Nc3cccnc32)c2ccccc21 [GW441756] (first compound 2 µM, partner dose 0.4 µM), the cell count in the assay with WM1745 stood at 71.9%; in the assay with WM3526 it was 93.4%; in the assay on WM3619, 108%; in the assay on WM451Lu, 90.9%.

Turning to `N#Cc1c(O)c2c(-c3ccc(-c4ccccc4O)cc3)csc2[nH]c1=O` + CC(C)CCN1c2nc(Nc3cc(F)c(O)c(F)c3)ncc2N(C)C(=O)C1C [BID1870] (first compound 2 µM, partner dose 0.2 µM), the cell count is 94.6% in the assay with WM1745, 95% with WM3526, 119% with WM3619 and 105% in the assay with WM451Lu.

In the case of `Cc1cc([N+](=O)[O-])ccc1NS(=O)(=O)c1cc(Cl)ccc1Cl` + CCCCCCCCCCCC1=C(O)C(=O)C=C(O)C1=O [Embelin] (first compound 1 µM, partner dose 1.2 µM), the cell count with WM1745 was found to be 98.2%; with WM3526, 97.2%; in the assay with WM3619, 105%; in the assay with WM451Lu, 107%.

Turning to `O=S(=O)(c1ccccc1)N(CC(F)(F)F)c1ccc(C(O)(C(F)(F)F)C(F)(F)F)cc1` + CC(C)CCN1c2nc(Nc3cc(F)c(O)c(F)c3)ncc2N(C)C(=O)C1C [BID1870] (first compound 1.4 µM, partner dose 0.2 µM), the cell count in the assay with WM1745 came out at 93.4%; with WM3526, 81.1%; in the assay with WM3619, 87.3%; in the assay with WM451Lu, 100%.

As to `O=S(=O)(c1ccccc1)N(CC(F)(F)F)c1ccc(C(O)(C(F)(F)F)C(F)(F)F)cc1` + CCCCCCCCCCCC1=C(O)C(=O)C=C(O)C1=O [Embelin] (first compound 1.4 µM, partner dose 1.2 µM), the cell count in the assay with WM1745 turned out to be 88.3%; in the assay on WM3526, 78.6%; with WM3619, 102%; in the assay with WM451Lu it was 101%.

In the case of `O=S(=O)(c1ccccc1)N(CC(F)(F)F)c1ccc(C(O)(C(F)(F)F)C(F)(F)F)cc1` + Oc1nc(-c2ccc(C(F)(F)F)cc2)nc2c1CSCC2 [XAV939] (first compound 1.4 µM, partner dose 2 µM), the cell count in the assay with WM1745 worked out at 73.2%; in the assay with WM3526 it was 91.7%; in the assay with WM3619 it was 86.6%; with WM451Lu, 102%.

`COc1ccc(COc2ccc(Cc3cnc(N)nc3N)cc2OC)cc1` + c1cc(-c2cnn3cc(-c4ccc(OCCN5CCCCC5)cc4)cnc23)ccn1 [Dorsomorphin] (first compound 1 µM, partner dose 0.4 µM): the cell count was 74.5% in the assay on WM1745, 92.4% in the assay with WM3526, 93.9% with WM3619 and 106% in the assay on WM451Lu.

As to `N#Cc1c(O)c2c(-c3ccc(-c4ccccc4O)cc3)csc2[nH]c1=O` + COC(=O)c1sccc1S(=O)(=O)Nc1ccc(Nc2ccccc2)cc1OC [GSK0660] (first compound 2 µM, partner dose 1 µM), the cell count in the assay on WM1745 was determined as 105%; in the assay on WM3526, 90.1%; with WM3619, 116%; with WM451Lu, 111%.

As to `COc1ccc2c(c1)CCC1C2CCC2(C)C(NCCCCCCN3C(=O)C=CC3=O)CCC12` (centres undefined) + CCN(CC)CCCCNc1ncc2cc(-c3cc(OC)cc(OC)c3)c(NC(=O)NC(C)(C)C)nc2n1 [PD173074] (first compound 0.4 µM, partner dose 0.1 µM), the cell count with WM1745 was found to be 81%; with WM3526 it was 92%; in the assay with WM3619, 104%; in the assay with WM451Lu, 103%.

Turning to `O=C1NC(=O)/C(=C/c2ccc(-c3ccc(F)cc3O)o2)S1` + Cc1cc([N+](=O)[O-])ccc1NS(=O)(=O)c1cc(Cl)ccc1Cl [FH535] (first compound 1 µM, partner dose 1 µM), the cell count in the assay on WM1745 worked out at 88.8%; in the assay on WM3526 it was 97.9%; with WM3619, 99.1%; in the assay with WM451Lu, 97.3%.

Turning to `N#Cc1c(O)c2c(-c3ccc(-c4ccccc4O)cc3)csc2[nH]c1=O` + COc1ccc(COc2ccc(Cc3cnc(N)nc3N)cc2OC)cc1 [GW2580] (first compound 2 µM, partner dose 1 µM), the cell count in the assay on WM1745 was found to be 81.4%; in the assay with WM3526 it was 106%; in the assay with WM3619, 111%; with WM451Lu, 93%.
